Where a chain is given by its changes, count along the chain named. In names and notes the source's numbering stands.

The term koff denotes a measure of how fast the partners let go of each other. The low end stands for a long-lived complex, the high end for a short-lived complex. The term kon denotes a measure of how fast the partners come together.

The labels stand for the following.
B1: A06 E06-hFc (S239C), [G4S]3 linkers (Fc fusion)
chain 1: QVHLVESGGGLVQAGGSLRLSCAASGRTFLSMGWFRQAPGKEREFVAAISWTGGSTGYADSVKGRFTISRESDKETMYLQMNSLKPEDTAVYYCAARGDVYYGGDDATRYKYWGQGTQVTVSSGGGGSGGGGSGGGGS[human IgG1 Fc with C220S S239C T366Y (EU numbers) not spelt out]
chain 2: QVHLVESGGGLVQAGGSLRLSCAASRRSFSEYAMGWFRQAPGKEREFVAAIGWSGVIEYADSVKGRFTISRDNAKDTVYLQMNSLKPEDTAVYYCAAGLGIRVVSQTPAYWGQGTQVTVSSGGGGSGGGGSGGGGS[human IgG1 Fc with C220S S239C Y407T (EU numbers) not spelt out]
notes: Biparatopic knobs-into-holes heterodimer
B2: D10 F05-hFc (S239C), [G4S]3 linkers (Fc fusion)
chain 1: QVQLVESGGGLVQPGGSLRLSCAASGSIFSVNTMGWYRQAPGKQRDLVAVATSGGTIHYADSVKGRFTISRDNAKNTVYLQMNSLKPEDTAVYYCNLVVPYGMIAGDHDYWGQGTKVTVSSGGGGSGGGGSGGGGS[human IgG1 Fc with C220S S239C T366Y (EU numbers) not spelt out]
chain 2: QVQLVESGGGLVQAGGSLRLSCAASGRAFGDYNIGWFRQAPGKEREFVARRTWDGSSTRYDDSVKGRFTVSIDNAKNTAYLQMNSLKTEDTAVYYCAAGRYSRVRGWEYDYWGQGTQVTVSSGGGGSGGGGSGGGGS[human IgG1 Fc with C220S S239C Y407T (EU numbers) not spelt out]
notes: Biparatopic knobs-into-holes heterodimer; also called #608
B3: A06 E10-hFc (S239C), [G4S]3 linkers (Fc fusion)
chain 1: B1 chain 1
chain 2: B2 chain 2 with A24V, F29L, G30S, R51K, D73E, N74D, N84S, V104A
notes: Biparatopic knobs-into-holes heterodimer; also called #606
B4: A06 F05-hFc (S239C), [G4S]3 linkers (Fc fusion)
chain 1: B1 chain 1
chain 2: B2 chain 2
notes: Biparatopic knobs-into-holes heterodimer; also called #611

The target in the first assay is T1, Human ALPPL2 (leucine zipper) (human).
T1 construct: Soluble human ALPPL2 fused to a disulphide stabilised leucine zipper and a His tag; The whole entry is the construct; also called hALPPL2; ALPG
T1 chain: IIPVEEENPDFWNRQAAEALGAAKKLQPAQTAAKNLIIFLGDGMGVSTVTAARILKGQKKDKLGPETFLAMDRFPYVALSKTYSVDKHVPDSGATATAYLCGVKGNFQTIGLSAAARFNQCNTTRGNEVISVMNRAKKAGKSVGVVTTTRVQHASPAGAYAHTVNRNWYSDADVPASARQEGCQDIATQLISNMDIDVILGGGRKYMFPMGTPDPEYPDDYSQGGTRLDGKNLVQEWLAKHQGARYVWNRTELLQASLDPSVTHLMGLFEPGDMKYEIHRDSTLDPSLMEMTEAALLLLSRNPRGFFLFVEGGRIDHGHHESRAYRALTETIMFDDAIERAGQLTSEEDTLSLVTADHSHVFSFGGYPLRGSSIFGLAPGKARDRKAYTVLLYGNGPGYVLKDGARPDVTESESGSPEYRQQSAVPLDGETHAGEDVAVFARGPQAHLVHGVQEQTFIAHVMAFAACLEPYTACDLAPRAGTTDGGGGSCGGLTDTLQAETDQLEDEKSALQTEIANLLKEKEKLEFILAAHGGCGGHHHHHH
Briefly: BLI, KD app (antigen immobilised on AR2G sensor). The method, then:
(§1) Binding kinetics were determined using the Biolayer Interferometry (BLI) Octet K2 or R4 system (Sartorius). […] For KD apparent measurements, the ALPP proteins were immobilised in sodium acetate pH5 buffer to AR2G sensors using amine coupling. To measure 1:1 interactions, AHC biosensors were used to immobilise Fc-fused proteins. All assays were conducted in HBS-EP with a plate temperature of 25° C. Ka (M⁻¹s⁻¹), Kd (s⁻¹) and KD (nM) values were determined using Octet Data Analysis High Throughput software (Sartorius) for Biolayer Interferometry.
In general terms: Biolayer interferometry detects binding as a change in optical thickness at a sensor tip.
Turning to B1, the koff amounted to 3.74e-05 s⁻¹ and the kon was determined as 434000 M⁻¹ s⁻¹.
The molecule B2 had a Kd of 0.236 nM, a koff of 0.000144 s⁻¹ and a kon of 609000 M⁻¹ s⁻¹.
The molecule B3 yielded a Kd of 0.138 nM, a koff of 4.91e-05 s⁻¹ and a kon of 356000 M⁻¹ s⁻¹.
Turning to B4, the Kd came out at 0.272 nM, the koff was found to be 0.000144 s⁻¹ and the kon was 531000 M⁻¹ s⁻¹.

For the next assay, the target named is T2, Human ALPP (leucine zipper) (human).
T2 construct: Soluble human ALPP fused to a disulphide stabilised leucine zipper and a His tag; The whole entry is the construct; also called hALPP; PLAP
T2 chain: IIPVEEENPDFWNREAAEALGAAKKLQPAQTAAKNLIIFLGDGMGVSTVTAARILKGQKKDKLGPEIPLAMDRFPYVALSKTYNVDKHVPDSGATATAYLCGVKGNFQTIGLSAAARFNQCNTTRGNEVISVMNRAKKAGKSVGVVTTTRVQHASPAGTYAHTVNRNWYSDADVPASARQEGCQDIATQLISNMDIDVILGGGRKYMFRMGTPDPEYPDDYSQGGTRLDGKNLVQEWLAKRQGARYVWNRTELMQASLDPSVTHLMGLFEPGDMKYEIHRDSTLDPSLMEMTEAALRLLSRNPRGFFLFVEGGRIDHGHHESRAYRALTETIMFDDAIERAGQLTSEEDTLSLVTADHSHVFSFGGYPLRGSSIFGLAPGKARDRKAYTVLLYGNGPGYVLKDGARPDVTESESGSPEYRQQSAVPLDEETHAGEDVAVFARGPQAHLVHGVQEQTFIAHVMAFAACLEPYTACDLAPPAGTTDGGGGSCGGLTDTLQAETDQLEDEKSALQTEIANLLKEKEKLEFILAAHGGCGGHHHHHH
Briefly: BLI, KD app (antigen immobilised on AR2G sensor). The method, then: as §1
For the molecule B1, the Kd is below 0.01 nM, the koff is below 1e-07 s⁻¹ and the kon is 443000 M⁻¹ s⁻¹.
In the same order, the values of B2 are 0.014 nM, 4.82e-06 s⁻¹ and 342000 M⁻¹ s⁻¹.
The molecule B3 registered a Kd below 0.01 nM, a koff below 1e-07 s⁻¹ and a kon of 474000 M⁻¹ s⁻¹.
Molecule B4 gave a Kd of 0.0204 nM, a koff of 7.33e-06 s⁻¹ and a kon of 359000 M⁻¹ s⁻¹.

The next assay deals with T1, Human ALPPL2 (leucine zipper). Briefly: BLI, KD 1:1 (Fc fusion captured on AHC sensor). The method, then:
as §1
B1: the Kd was below 0.01 nM, the koff is below 1e-07 s⁻¹ and the kon is 689000 M⁻¹ s⁻¹.
Turning to B2, the Kd is below 0.01 nM, the koff is below 1e-07 s⁻¹ and the kon turned out to be 442000 M⁻¹ s⁻¹.
In the same order, the values of B3 are below 0.01 nM, below 1e-07 s⁻¹ and 624000 M⁻¹ s⁻¹.
In the same order, the values of B4 are below 0.01 nM, below 1e-07 s⁻¹ and 600000 M⁻¹ s⁻¹.

The target in a further assay is T2, Human ALPP (leucine zipper). Briefly: BLI, KD 1:1 (Fc fusion captured on AHC sensor). The procedure: as §1
Molecule B1 showed a Kd below 0.01 nM, a koff below 1e-07 s⁻¹ and a kon of 450000 M⁻¹ s⁻¹.
In the same order, the values of B2 are below 0.01 nM, below 1e-07 s⁻¹ and 389000 M⁻¹ s⁻¹.
B3: the Kd is below 0.01 nM, the koff is below 1e-07 s⁻¹ and the kon came out at 452000 M⁻¹ s⁻¹.
In the same order, the values of B4 are below 0.01 nM, below 1e-07 s⁻¹ and 398000 M⁻¹ s⁻¹.

In another assay the target is T3, Human ALPL (leucine zipper) (human).
T3 construct: Soluble human ALPL fused to a disulphide stabilised leucine zipper and a His tag; also called hALPL; TNAP
T3 chain: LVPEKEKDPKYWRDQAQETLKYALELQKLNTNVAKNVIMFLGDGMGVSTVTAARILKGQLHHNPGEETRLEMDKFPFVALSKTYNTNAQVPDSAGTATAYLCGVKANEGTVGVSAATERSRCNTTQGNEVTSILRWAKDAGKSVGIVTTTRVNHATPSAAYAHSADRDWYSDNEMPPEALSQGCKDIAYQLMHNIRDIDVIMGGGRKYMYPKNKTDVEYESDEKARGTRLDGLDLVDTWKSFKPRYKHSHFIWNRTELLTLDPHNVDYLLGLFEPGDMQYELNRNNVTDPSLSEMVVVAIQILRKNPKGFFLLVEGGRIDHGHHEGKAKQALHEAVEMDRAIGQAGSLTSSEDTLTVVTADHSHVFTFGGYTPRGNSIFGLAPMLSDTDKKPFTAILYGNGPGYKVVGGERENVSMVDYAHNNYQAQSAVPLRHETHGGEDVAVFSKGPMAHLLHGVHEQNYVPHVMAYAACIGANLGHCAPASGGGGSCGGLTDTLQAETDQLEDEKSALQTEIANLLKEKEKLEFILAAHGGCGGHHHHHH
The assay is described as follows: BLI. The method, then: as §1
As to B1, the binding result is listed as “no binding”.
For the molecule B2, the binding result is “no binding”.
Same read-out and setting: as for B3, the entry is “no binding”; as for B4, “no binding”.

For another assay, the target named is T4, ALPI His (human, UniProt P09923 20-503).
T4 construct: Soluble ALPI with a C-terminal G4S-His6; also called hALPI; ALPI His homodimer
T4 sequence: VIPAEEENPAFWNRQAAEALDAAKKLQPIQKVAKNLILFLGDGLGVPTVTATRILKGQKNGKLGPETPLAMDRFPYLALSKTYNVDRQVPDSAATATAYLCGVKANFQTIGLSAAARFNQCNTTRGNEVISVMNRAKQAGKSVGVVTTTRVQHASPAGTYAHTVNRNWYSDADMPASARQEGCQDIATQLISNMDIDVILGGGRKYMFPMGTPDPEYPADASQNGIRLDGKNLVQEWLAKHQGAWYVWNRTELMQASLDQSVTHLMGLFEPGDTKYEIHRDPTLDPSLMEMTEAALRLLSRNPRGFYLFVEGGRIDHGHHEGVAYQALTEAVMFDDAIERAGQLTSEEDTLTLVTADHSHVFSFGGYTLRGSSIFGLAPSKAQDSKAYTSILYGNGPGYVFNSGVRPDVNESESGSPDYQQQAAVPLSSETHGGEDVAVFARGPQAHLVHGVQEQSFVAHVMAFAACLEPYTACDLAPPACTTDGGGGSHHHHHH
Briefly: BLI. The procedure:
as §1
B1: the binding result was “no binding”.
The same measure, in the same setting: as for B2, the entry is “no binding”; as for B3, “no binding”; as for B4, “no binding”.

(Values after patent US20260216242A1 (ALMAC DISCOVERY, published 2026).)
